Data reported in the supplement of paper PMC8728848.
The list shows a part of the results.

Experiments:
Assay in all cases: glycan array binding signal (z-score within array); higher = stronger binding
Details in all cases: glycan notation: IUPAC condensed, linker removed
[1] = molecular target: Gal(b1-3)GlcNAc(b1-6)GalNAc
Method in brief: (§1)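 Negative Z-scores can be read as non-binding. The Z-score is calculated within each array and then averaged across arrays of one protein sequence at different concentrations or buffers and across linkers. Arrays, 3228 in all, were curated from the Consortium for Functional Glycomics database and kept only where the protein sequence was available.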

[2] = molecular target: Gal(b1-3)GlcNAc(b1-6)[Gal(b1-3)]GalNAc
Method in brief: as §1

[3] = molecular target: Gal(b1-3)GlcNAc6S
Method in brief: as §1

[4] = molecular target: Gal(b1-3)[Fuc(a1-4)]GlcNAc
Method in brief: as §1

[5] = molecular target: Gal(b1-3)[Fuc(a1-4)]GlcNAc(b1-2)Man
Method in brief: as §1

[6] = molecular target: Gal(b1-3)[Fuc(a1-4)]GlcNAc(b1-2)Man(a1-3)[Gal(b1-3)[Fuc(a1-4)]GlcNAc(b1-2)Man(a1-6)]Man(b1-4)GlcNAc(b1-4)[Fuc(a1-6)]GlcNAc
Method in brief: as §1

[7] = molecular target: Gal(b1-3)[Fuc(a1-4)]GlcNAc(b1-3)Gal(b1-3)[Fuc(a1-4)]GlcNAc
Method in brief: as §1

[8] = molecular target: Gal(b1-3)[Fuc(a1-4)]GlcNAc(b1-3)Gal(b1-4)[Fuc(a1-3)]GlcNAc
Method in brief: as §1

[9] = molecular target: Gal(b1-3)[Fuc(a1-4)]GlcNAc(b1-6)GalNAc
Method in brief: as §1

[10] = molecular target: Gal(b1-3)[GlcNAc(b1-6)]GalNAc
Method in brief: as §1

[11] = molecular target: Gal(b1-3)[Neu5Ac(a2-6)]GalNAc
Method in brief: as §1

[12] = molecular target: Gal(b1-3)[Neu5Ac(a2-6)]GlcNAc(b1-4)Gal(b1-4)Glc
Method in brief: as §1

[13] = molecular target: Gal(b1-3)[Neu5Ac(b2-6)]GalNAc
Method in brief: as §1

[14] = molecular target: Gal(b1-4)Gal
Method in brief: as §1

[15] = molecular target: Gal(b1-4)GalNAc(a1-3)[Fuc(a1-2)]Gal(b1-4)GlcNAc
Method in brief: as §1

[16] = molecular target: Gal(b1-4)GalNAc(b1-3)[Fuc(a1-2)]Gal(b1-4)GlcNAc
Method in brief: as §1

[17] = molecular target: Gal(b1-4)Glc
Method in brief: as §1

[18] = molecular target: Gal(b1-4)Glc6S
Method in brief: as §1

[19] = molecular target: Gal(b1-4)GlcNAc
Method in brief: as §1

[20] = molecular target: Gal(b1-4)GlcNAc(a1-6)Gal(b1-4)GlcNAc
Method in brief: as §1

[21] = molecular target: Gal(b1-4)GlcNAc(b1-2)Man
Method in brief: as §1

[22] = molecular target: Gal(b1-4)GlcNAc(b1-2)Man(a1-3)Man(b1-4)GlcNAc(b1-4)GlcNAc
Method in brief: as §1

[23] = molecular target: Gal(b1-4)GlcNAc(b1-2)Man(a1-3)[Gal(b1-4)GlcNAc(b1-2)Man(a1-6)]Man(b1-4)GlcNAc(b1-4)GlcNAc
Method in brief: as §1

[24] = molecular target: Gal(b1-4)GlcNAc(b1-2)Man(a1-3)[Gal(b1-4)GlcNAc(b1-2)Man(a1-6)]Man(b1-4)GlcNAc(b1-4)[Fuc(a1-6)]GlcNAc
Method in brief: as §1

[25] = molecular target: Gal(b1-4)GlcNAc(b1-2)Man(a1-3)[Gal(b1-4)GlcNAc(b1-2)Man(a1-6)][Gal(b1-4)GlcNAc(b1-4)]Man(b1-4)GlcNAc(b1-4)[Fuc(a1-6)]GlcNAc
Method in brief: as §1

[26] = molecular target: Gal(b1-4)GlcNAc(b1-2)Man(a1-3)[Gal(b1-4)GlcNAc(b1-2)Man(a1-6)][GlcNAc(b1-4)]Man(b1-4)GlcNAc(b1-4)[Fuc(a1-6)]GlcNAc
Method in brief: as §1

[27] = molecular target: Gal(b1-4)GlcNAc(b1-2)Man(a1-3)[GlcNAc(b1-2)Man(a1-6)]Man(b1-4)GlcNAc(b1-4)GlcNAc
Method in brief: as §1

[28] = molecular target: Gal(b1-4)GlcNAc(b1-2)Man(a1-3)[GlcNAc(b1-4)][Gal(b1-4)GlcNAc(b1-2)Man(a1-6)]Man(b1-4)GlcNAc(b1-4)GlcNAc
Method in brief: as §1

[29] = molecular target: Gal(b1-4)GlcNAc(b1-2)Man(a1-3)[Man(a1-6)]Man(b1-4)GlcNAc(b1-4)GlcNAc
Method in brief: as §1

[30] = molecular target: Gal(b1-4)GlcNAc(b1-2)Man(a1-6)Man(b1-4)GlcNAc(b1-4)GlcNAc
Method in brief: as §1

[31] = molecular target: Gal(b1-4)GlcNAc(b1-2)Man(a1-6)[GlcNAc(b1-2)Man(a1-3)]Man(b1-4)GlcNAc(b1-4)GlcNAc
Method in brief: as §1

[32] = molecular target: Gal(b1-4)GlcNAc(b1-2)Man(a1-6)[Man(a1-3)]Man(b1-4)GlcNAc(b1-4)GlcNAc
Method in brief: as §1

[33] = molecular target: Gal(b1-4)GlcNAc(b1-2)[Gal(b1-4)GlcNAc(b1-4)]Man(a1-3)[Gal(b1-4)GlcNAc(b1-2)Man(a1-6)]Man(b1-4)GlcNAc(b1-4)GlcNAc
Method in brief: as §1

[34] = molecular target: Gal(b1-4)GlcNAc(b1-2)[Gal(b1-4)GlcNAc(b1-4)]Man(a1-3)[Gal(b1-4)GlcNAc(b1-2)[Gal(b1-4)GlcNAc(b1-6)]Man(a1-6)]Man(b1-4)GlcNAc(b1-4)GlcNAc
Method in brief: as §1

[35] = molecular target: Gal(b1-4)GlcNAc(b1-2)[Gal(b1-4)GlcNAc(b1-4)]Man(a1-3)[GlcNAc(b1-4)][Gal(b1-4)GlcNAc(b1-2)Man(a1-6)]Man(b1-4)GlcNAc(b1-4)GlcNAc
Method in brief: as §1

[36] = molecular target: Gal(b1-4)GlcNAc(b1-2)[Gal(b1-4)GlcNAc(b1-4)]Man(a1-3)[GlcNAc(b1-4)][Gal(b1-4)GlcNAc(b1-2)[Gal(b1-4)GlcNAc(b1-6)]Man(a1-6)]Man(b1-4)GlcNAc(b1-4)GlcNAc
Method in brief: as §1

[37] = molecular target: Gal(b1-4)GlcNAc(b1-2)[Gal(b1-4)GlcNAc(b1-6)]Man(a1-6)[Gal(b1-4)GlcNAc(b1-2)Man(a1-3)]Man(b1-4)GlcNAc(b1-4)GlcNAc
Method in brief: as §1

[38] = molecular target: Gal(b1-4)GlcNAc(b1-2)[Gal(b1-4)GlcNAc(b1-6)]Man(a1-6)[Gal(b1-4)GlcNAc(b1-2)Man(a1-3)]Man(b1-4)GlcNAc(b1-4)[Fuc(a1-6)]GlcNAc
Method in brief: as §1

[39] = molecular target: Gal(b1-4)GlcNAc(b1-2)[Gal(b1-4)GlcNAc(b1-6)]Man(a1-6)[GlcNAc(b1-4)][Gal(b1-4)GlcNAc(b1-2)Man(a1-3)]Man(b1-4)GlcNAc(b1-4)GlcNAc
Method in brief: as §1

[40] = molecular target: Gal(b1-4)GlcNAc(b1-2)[Gal(b1-4)GlcNAc(b1-6)]Man(a1-6)[GlcNAc(b1-4)][Gal(b1-4)GlcNAc(b1-2)[Gal(b1-4)GlcNAc(b1-4)]Man(a1-3)]Man(b1-4)GlcNAc(b1-4)[Fuc(a1-6)]GlcNAc
Method in brief: as §1

[41] = molecular target: Gal(b1-4)GlcNAc(b1-3)Gal(b1-3)GalNAc
Method in brief: as §1

[42] = molecular target: Gal(b1-4)GlcNAc(b1-3)Gal(b1-3)GlcNAc
Method in brief: as §1

[43] = molecular target: Gal(b1-4)GlcNAc(b1-3)Gal(b1-4)Glc
Method in brief: as §1

[44] = molecular target: Gal(b1-4)GlcNAc(b1-3)Gal(b1-4)GlcNAc
Method in brief: as §1

[45] = molecular target: Gal(b1-4)GlcNAc(b1-3)Gal(b1-4)GlcNAc(b1-2)Man(a1-3)[Gal(b1-4)GlcNAc(b1-3)Gal(b1-4)GlcNAc(b1-2)Man(a1-6)]Man(b1-4)GlcNAc(b1-4)GlcNAc
Method in brief: as §1

B1: BC2LB (Burholderia cenocepacia), B4EH85_BURCJ (protein)
chain: MGSSHHHHHHSSGENLYFQGHMSQPFTHDDLYALLQLAGNDATAVQANGDQAVLDRMRQFMTAQLVEKLPQYDVFVDIATIPYSFDVGSWQNKVKTDAAGEVVACTVTWAGAPGVLPGAAAKFGVGAVVNYFSKATPH
With B1 the “glycan array binding signal (z-score)” value [1] was -0.294, the “glycan array binding signal (z-score)” value [2] was -0.3 and the “glycan array binding signal (z-score)” value [3] was -0.204. The “glycan array binding signal (z-score)” value [4] was 0.255, the “glycan array binding signal (z-score)” value [5] was -0.354 and the “glycan array binding signal (z-score)” value [6] was -0.098. For the same binder, the “glycan array binding signal (z-score)” value [7] was -0.301, the “glycan array binding signal (z-score)” value [8] was -0.154 and the “glycan array binding signal (z-score)” value [9] was -0.203. For the same binder, the “glycan array binding signal (z-score)” value [10] was -0.228, the “glycan array binding signal (z-score)” value [11] was -0.283 and the “glycan array binding signal (z-score)” value [12] was -0.126. For the same binder, the “glycan array binding signal (z-score)” value [13] was -0.265, the “glycan array binding signal (z-score)” value [14] was -0.306 and the “glycan array binding signal (z-score)” value [15] was -0.333. For the same binder, the “glycan array binding signal (z-score)” value [16] was -0.357, the “glycan array binding signal (z-score)” value [17] was -0.344 and the “glycan array binding signal (z-score)” value [18] was -0.223. For the same binder, the “glycan array binding signal (z-score)” value [19] was -0.234, the “glycan array binding signal (z-score)” value [20] was -0.256 and the “glycan array binding signal (z-score)” value [21] was 0.281. For the same binder, the “glycan array binding signal (z-score)” value [22] was -0.138, the “glycan array binding signal (z-score)” value [23] was -0.343 and the “glycan array binding signal (z-score)” value [24] was -0.022. For the same binder, the “glycan array binding signal (z-score)” value [25] was -0.306, the “glycan array binding signal (z-score)” value [26] was -0.329 and the “glycan array binding signal (z-score)” value [27] was -0.234. For the same binder, the “glycan array binding signal (z-score)” value [28] was -0.264, the “glycan array binding signal (z-score)” value [29] was 0.202 and the “glycan array binding signal (z-score)” value [30] was -0.192. The “glycan array binding signal (z-score)” value [31] was -0.225, the “glycan array binding signal (z-score)” value [32] was -0.308 and the “glycan array binding signal (z-score)” value [33] was -0.008. For the same binder, the “glycan array binding signal (z-score)” value [34] was -0.407, the “glycan array binding signal (z-score)” value [35] was -0.282 and the “glycan array binding signal (z-score)” value [36] was -0.22. The “glycan array binding signal (z-score)” value [37] was -0.217, the “glycan array binding signal (z-score)” value [38] was -0.243 and the “glycan array binding signal (z-score)” value [39] was -0.374. For the same binder, the “glycan array binding signal (z-score)” value [40] was -0.237, the “glycan array binding signal (z-score)” value [41] was -0.131 and the “glycan array binding signal (z-score)” value [42] was -0.143. For the same binder, the “glycan array binding signal (z-score)” value [43] was -0.171, the “glycan array binding signal (z-score)” value [44] was -0.295 and the “glycan array binding signal (z-score)” value [45] was -0.229.
